Experiment [1] relates to K/09 virus (A/Korea/01/2009). Put plainly: microbe, parasite or virus in culture. The conditions noted are these: Influenza A virus, MDCK.
Experiment [2] addresses T1, K/09 virus (A/Korea/01/2009) neuraminidase (NA) (Influenza A virus, UniProt C5MQP8). Put plainly: biochemical.
The target in experiment [3] is T1, K/09 virus (A/Korea/01/2009) neuraminidase (NA).

Read-outs that look alike come from different tables or passages of the source.

The term EC50 denotes the midpoint of the concentration-response curve. In experiment [1], `NC(=O)c1nc(F)cnc1O` [Favipiravir, 6-fluoro-3-hydroxy-2-pyrazinecarboxamide] yielded an EC50 of 8390 nM.

Broadly, the IC50 is the point on the concentration scale where inhibition reaches its midpoint. Low readings indicate higher potency, high ones lower potency. `CCC(CC)O[C@@H]1C=C(C(=O)O)C[C@H](N)[C@H]1NC(C)=O` [Oseltamivir carboxylate] registered an IC50 in experiment [2] of 5.07 nM.

In turn, `CCC(CC)[C@H](NC(C)=O)[C@@H]1[C@H](O)[C@@H](C(=O)O)C[C@H]1N=C(N)N` [Peramivir] returned a 50% inhibitory concentration (IC50) in experiment [3] of 1.38 nM.

These data come from publication PMC4081560 (PLoS ONE, 2014).
